From PubChem BioAssay AID1346428 (National Center for Advancing Translational Sciences (NCATS), 2018) come the findings set out here.

Where “and” joins values, the source holds several entries; their conditions need not be identical. Equal entries are not always repeated. Among all 48,000 compounds or so, about 1,200 (2.5%) were called active. Inconclusive results (about 2%) are left out.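 The calls were made as follows: active = activation of at least 60% and not above a set upper limit (about 1 call in 100 departs from these limits); inconclusive = activation of 40% to 60%, or above that upper limit; inactive = activation under 40%.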 The list shows a part of the results.

For the experiment, the target named is Probable G-protein coupled receptor 32 (Homo sapiens) (UniProt O75388). Kind of experiment: qHTS for Agonists of Human Resolvin D1 Receptor DRV1. Also: 0% is about no effect. As to conditions: CHO-K1 GPR32 beta-arrestin PathHunter luminescence, 90 min; at 76.9 µM; hits give high values; zero percent set by DMSO-only wells. The procedure, abridged: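 CHO-K1 cells stably expressing ProLink-tagged GPR32 and Enzyme Activator-tagged beta-arrestin were seeded at 2,500 cells/well overnight, exposed to compounds for 90 min at 37 °C, then read by beta-Gal complementation chemiluminescence after 1 h detection reagent.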
Sequence of UniProt O75388 (O75388 whole entry, looked up): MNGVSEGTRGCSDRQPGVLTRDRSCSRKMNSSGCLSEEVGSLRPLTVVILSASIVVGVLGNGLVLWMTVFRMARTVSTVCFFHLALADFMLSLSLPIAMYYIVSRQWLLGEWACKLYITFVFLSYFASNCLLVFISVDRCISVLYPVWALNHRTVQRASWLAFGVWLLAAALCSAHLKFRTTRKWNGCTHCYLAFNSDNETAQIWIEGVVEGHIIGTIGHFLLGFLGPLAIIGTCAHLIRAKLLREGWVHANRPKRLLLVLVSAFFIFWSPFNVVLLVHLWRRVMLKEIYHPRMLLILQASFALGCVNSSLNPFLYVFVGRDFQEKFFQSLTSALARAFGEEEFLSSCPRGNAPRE
Background: qHTS replaces the single test concentration by a dilution series.
For `CCc1cccc(-n2nnc(-c3nc(-c4cccs4)no3)c2N)c1`, the activation is inactive: 14.6%.
Turning to `O=C(Cn1nc(Cc2cccnc2)c2ccccc2c1=O)Nc1cccc(C(F)(F)F)c1`, the activation was inactive: -12%.
As for `CC1CCN(S(=O)(=O)c2cccc(C(=O)N(C)C3(C)CCS(=O)(=O)C3)c2)CC1` (stereo not given), the activation was inactive: -12.5%.
`CC1=C(C(=O)Nc2cccnc2)C(c2ccc(F)cc2)n2nc(SCc3ccccc3)nc2N1` (stereo not given): the activation is inactive: -20.5%.
As to `CCCNC(=O)Cn1nc(C)c2c(C)n(-c3ccccc3)nc2c1=O`, the activation is inactive: -3.06%.
On to `Cc1cccc(NC(=O)CCS(=O)(=O)c2cc(Br)cc3c2N(C(=O)C2CC2)CC3)c1C`, for which the activation was inactive: 3.81%.
For the compound `CC(NC(=O)C1CCN(C(=O)N2CCOc3ccccc32)CC1)c1ccccc1` (stereo not given), the activation was inactive: -10.8%.
The value for `COc1cc(OC)c(NC(=O)CSc2nc3ccncc3[nH]2)cc1Cl` was inactive: 1.73%; that for `CCCCOC(=O)CCCCCCCCC(=O)OCCCC` was inactive: -11.4%.
On to `CCCCNC(=O)CSc1nc2ccccc2nc1Cc1ccccc1`, for which the activation is inactive: 18.3%.
For the compound `CC(C)CCNC(=O)c1ccc(NC(=O)N2CCCCc3ccccc32)cc1`, the activation is inactive: 3.76%.
To `Cc1ccc(N2CC(NC(=O)C3CCCC3)CC2=O)cc1` (stereo not given) belongs inactive: -5.27%.
For `CCOc1ccc(Nc2c(S(=O)(=O)c3ccccc3)cnc3ccc(CC)cc23)cc1`, the activation is inactive: -45.5%.
`Cc1ccc(C(=O)c2cn(CC(=O)Nc3ccc4c(c3)OCCO4)c3nc(C)ccc3c2=O)cc1`: the activation is inactive: 19.7%.
In the case of `COc1cccc(N2CCN(C(=O)Cn3ncc4c3-c3ccccc3OC4)CC2)c1`, the activation was inactive: 39%.
On to `CSc1oc(-c2ccc(F)cc2)nc1S(=O)(=O)c1ccc(Br)cc1`, for which the activation is inactive: -7.03%.
The value for `CC(C)CC(NC(=O)C1CCC(C)CC1)C(=O)OCC(=O)c1ccc(Cl)cc1` (stereo not given) was inactive: 5.4%; that for `O=C(CSc1nc2ccccc2n1Cc1ccccc1)NCc1ccccc1` was inactive: -40.6%.
Consider `CN1Cc2cc(C(=O)N3CCC(C4CCNCC4)CC3)ccc2N[C@@H](CC(=O)O)C1=O`, for which the activation was inactive: 9.62%.
In the case of `Cc1ccc(CNC(=O)CN2C(=O)COc3ccc(S(=O)(=O)N4CCC(C)CC4)cc32)cc1`, the activation is inactive: -22.3%.
As for `CCN1C(=O)c2ccccc2S(=O)(=O)c2ccc(C(=O)NCc3ccc(F)cc3)cc21`, the activation is inactive: -36.6%.
For the compound `Nc1c(NC/C=C\COc2cc(CN3CCCCC3)ccn2)c(=O)c1=O`, the activation is inactive: -13.5%.
On to `CC(=O)N[C@@H](CS)C(=O)O`, for which the activation is inactive: 5.84% and inactive: -3%.
With `CSc1cccc(NC(=O)c2ccc3c(c2)CCCN3S(C)(=O)=O)c1`, the activation is inactive: 10.3%.
To `Cc1ccc(-n2cc(C(=O)OCc3ccc(Cl)cc3)c3ccccc3c2=O)cc1` belongs inactive: -9.14%; to `Cc1ccc(NC(=O)Cc2coc3c(C)c(C)ccc23)c(C)c1`, inactive: -4.42%; to `Cc1ccc(/C=C/C(=O)Nc2ccc(Cl)cc2Cl)cc1`, inactive: 12.1%.
To `COc1ccc(NC(=O)c2ccc3[nH]c(C)cc(=O)c3c2)cc1` belongs inactive: 0.626%; to `NCc1ccccc1Sc1ccccc1CO`, inactive: -19.7%.
Turning to `CN1c2ccccc2-c2nc(SCC(=O)Nc3ccccc3)ncc2S1(=O)=O`, the activation was inactive: -27%.
For `CCN(CC)c1ccc(-c2nc(-c3ccccn3)no2)cc1[N+](=O)[O-]`, the activation was inactive: 10.2%.
As to `Cc1ccc(C)c(NC(=O)CN(Cc2ccccc2)S(=O)(=O)c2ccc3nc(C)sc3c2)c1`, the activation is inactive: -24.7%.
As for `CCN(CCCNC(=O)c1ccc(Sc2ccc(Cl)cc2)c(NC(C)=O)c1)c1cccc(C)c1`, the activation was inactive: -19.8%.
For `COC(=O)C1CCN(c2csc3ccc(C)cc3c2=O)CC1`, the activation was inactive: -17.3%.
Regarding `CCc1nn(CCCC(=O)NCc2ccc(OC)c(OC)c2)c(=O)c2cc3occc3n12`, the activation was inactive: -11.5%.
To `Cc1ccc(-n2ncc3c(NCc4ccccc4)ncnc32)cc1C` belongs inactive: 36.6%; to `Cc1cc(Br)ccc1NC(=O)c1sc2ncn(Cc3ccccc3Cl)c(=O)c2c1C`, inactive: -22.2%.
In the case of `COc1cc(C2Oc3nc(SC)nnc3-c3ccccc3N2C(C)=O)cc(Cl)c1OC` (stereo not given), the activation is inactive: -12.6%.
In the case of `O=C(CSc1oc(-c2ccco2)nc1S(=O)(=O)c1ccc(Br)cc1)c1ccc(Cl)cc1`, the activation is inactive: -19.8%.
Turning to `CCOC(=O)c1ccc(NC(=O)C(CC)Sc2nncn3c2cc2oc(C)cc23)cc1` (stereo not given), the activation is inactive: -31.4%.
With `Cc1cn2c(=O)cc(COC(=O)c3ccc(NC(=O)c4ccc(C(C)(C)C)cc4)cc3)nc2s1`, the activation was inactive: -14.6%.
The value for `COc1ccc(CNS(=O)(=O)c2csc(C(N)=O)c2)cc1OC` was inactive: -36.6%.
To `COc1ccc(C2=Nc3ccccc3N(CC(=O)Nc3cccc(C(C)=O)c3)C(=O)C2)cc1` belongs inactive: -18.6%; to `CCCCNc1nc2c(-c3cccc(Br)c3)nnn2c2ccccc12`, inactive: 9.63%.
To `CCC1=C(c2ccc(C)cc2)S(=O)(=O)N=C1N1CCC(C(=O)NCCc2cccc(OC)c2)CC1` belongs inactive: -9.01%; to `COc1cccc2c1cc1c(=O)n(CC(=O)NCCCN3CCN(C)CC3)nc(C)n12`, inactive: -2.78%; to `COc1ccc(OCCCn2c(C)nc3cc(C)c(C)cc32)cc1`, inactive: 43.3%.
As for `O=C1Nc2c(c(=O)[nH]c(=O)n2-c2ccc(F)cc2)C1(NS(=O)(=O)c1ccc(Cl)cc1)C(F)(F)F` (stereo not given), the activation is inactive: 1.86%.
For the compound `Cn1nnnc1SCCCNCc1cc(Cl)ccc1OCc1ccccc1`, the activation was inactive: 7.73%.
To `COC(=O)c1ccc(OCC2c3cc(OC)c(OC)cc3CCN2C(=O)Cc2ccc(OC)c(OC)c2)cc1` (stereo not given) belongs inactive: -8.29%.
For the compound `CC(C)c1nn2c(=O)cc(COC(=O)c3ccc4c(c3)OCO4)nc2s1`, the activation is inactive: 8.48%.
As to `COc1cc(C(=O)Nc2nnc(CC(C)(C)C)s2)cc(OC)c1OC`, the activation was inactive: 10.6%.
To `CCc1ccc(NC(=O)C2CCCN2S(=O)(=O)c2cccc3nsnc23)cc1` (stereo not given) belongs inactive: -8.38%; to `CC(=O)N1CCc2c(sc3c2c(=O)n(-c2ccccc2)c(=O)n3CC(=O)c2ccc(F)cc2)C1`, inactive: 1.83%.
On to `Cc1cn2c(=O)c(S(=O)(=O)NCCc3ccc(Cl)cc3)c(C)nc2s1`, for which the activation is inactive: -17.4%.
